PubChem BioAssay AID504339 (National Center for Advancing Translational Sciences (NCATS), 2011)
The campaign covered roughly 390,000 compounds. About 17,000 (4.4%) were called active. Inconclusive means that the source gave no clear call. Such entries were picked first, then a sample of the others. Calls follow the shape of the dose curve; as a rule, active = well fitted inhibition curve with a large enough effect; inconclusive = small, poorly fitted or top-dose-only effect; inactive = no such curve, though single readings can be large or run the other way. Where the call is inconclusive, the potency comes from a doubtful curve fit.

Molecular target: Lysine-specific demethylase 4A (Homo sapiens) (UniProt O75164)
UniProt O75164, sequence (O75164 whole entry, looked up, the tested form may be a part): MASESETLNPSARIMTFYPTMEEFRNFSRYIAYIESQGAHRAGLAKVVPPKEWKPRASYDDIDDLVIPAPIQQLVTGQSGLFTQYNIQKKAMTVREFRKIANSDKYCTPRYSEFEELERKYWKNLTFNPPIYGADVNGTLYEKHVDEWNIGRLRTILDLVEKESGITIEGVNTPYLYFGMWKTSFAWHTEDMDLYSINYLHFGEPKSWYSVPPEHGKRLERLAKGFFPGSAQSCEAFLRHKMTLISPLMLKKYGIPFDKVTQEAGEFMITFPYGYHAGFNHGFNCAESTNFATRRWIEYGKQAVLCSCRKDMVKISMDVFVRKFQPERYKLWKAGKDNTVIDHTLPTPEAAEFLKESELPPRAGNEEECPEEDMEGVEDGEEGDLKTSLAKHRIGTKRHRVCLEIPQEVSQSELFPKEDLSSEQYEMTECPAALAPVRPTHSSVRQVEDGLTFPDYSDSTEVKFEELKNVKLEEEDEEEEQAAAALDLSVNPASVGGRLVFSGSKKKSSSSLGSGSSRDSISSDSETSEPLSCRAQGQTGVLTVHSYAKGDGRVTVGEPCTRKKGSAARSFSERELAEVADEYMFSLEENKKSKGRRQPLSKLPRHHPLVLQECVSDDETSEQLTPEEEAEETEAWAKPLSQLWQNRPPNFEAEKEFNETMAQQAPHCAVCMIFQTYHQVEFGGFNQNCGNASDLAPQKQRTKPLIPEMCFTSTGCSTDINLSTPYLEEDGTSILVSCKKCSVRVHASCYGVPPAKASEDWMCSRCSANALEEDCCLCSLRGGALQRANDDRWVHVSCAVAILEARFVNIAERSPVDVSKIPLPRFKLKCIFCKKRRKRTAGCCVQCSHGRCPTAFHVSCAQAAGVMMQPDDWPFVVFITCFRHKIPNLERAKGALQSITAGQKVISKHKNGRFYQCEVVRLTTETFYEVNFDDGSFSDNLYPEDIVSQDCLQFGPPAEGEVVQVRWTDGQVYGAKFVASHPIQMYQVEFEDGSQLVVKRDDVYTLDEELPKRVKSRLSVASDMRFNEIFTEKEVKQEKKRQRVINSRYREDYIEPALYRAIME
Experiment: qHTS Assay for Inhibitors of JMJD2A-Tudor Domain; also: nearly all actives have a fitted effect of over 50% in size
Conditions: AlphaScreen JMJD2A-Tudor / H3K4me3 peptide binding; activity change, negative = inhibition: at 114 µM (top of the series)
% is scaled to controls: 0 for no effect and ±100 for the full control effect; potency is read from the fitted curve at half-maximal effect; tags tell the direction and shape of the fitted curve.

Potency, inconclusive:
CC(=O)C1=C(O)C(=O)N(Cc2ccco2)C1c1ccccc1 (configuration not stated) 89.1 µM [inhibitor, partial curve]
c1ccc(CNc2nc(-c3ccccn3)nc3ccccc23)cc1 63.1 µM [inhibitor, partial curve]
c1cnn(-c2cc(N3CCOCC3)ncn2)c1 39.8 µM [inhibitor, single point]
COc1ccc(Nc2oc(COc3ccc(OC)cc3)nc2C#N)cc1 28.2 µM [inhibitor, full curve]
Cc1cccc(C)c1-n1c(C)cc(/C=N\NC(=O)CC(=O)NC2CCCCC2)c1C 50.1 µM [inhibitor, partial curve]
COc1ccc(Nc2nc(N)nc(CN3CCC(Cc4ccccc4)CC3)n2)cc1 35.5 µM [inhibitor, partial curve]
CCOc1ccc(C(=O)NNC2CC(=O)N(Cc3ccc(Cl)cc3)C2=O)cc1OC (configuration not stated) 89.1 µM [inhibitor, partial curve]
Cc1ccc2c(CNCc3ccc(C)o3)c(C(=O)O)n(Cc3ccccc3C)c2c1 56.2 µM [inhibitor, partial curve]
CC(C)C[C@@H](CN1CCCC1CN1C(=S)NC[C@@H]1Cc1ccc(O)cc1)N1C[C@H](Cc2ccc(O)cc2)N(CCc2ccccc2)C1=S (some centres not stated) 7.08 µM [inhibitor, full curve, poor fit]
C/C(=N\NS(=O)(=O)c1ccc(Cl)c([N+](=O)[O-])c1)c1cc2ccccc2o1 89.1 µM [inhibitor, partial curve]
COc1cnc(-c2ccccn2)nc1Sc1cccc(Cl)c1 79.4 µM [inhibitor, partial curve]
O=C(C1=C[C@@H](c2ccc(C(F)(F)F)cc2)C[C@@H](OCCCCO)O1)N1CCN(Cc2ccc3c(c2)OCO3)CC1 56.2 µM [inhibitor, partial curve]
Cc1ccc(C)c(N2CCN(S(=O)(=O)c3ccc4c(c3)C(C(C)C)C(=O)N4)CC2)c1 (configuration not stated) 39.8 µM [inhibitor, partial curve]
CCOC(=O)[C@H]1[C@H]2COc3ccc(C)cc3[C@@H]2N2C(=O)CN(Cc3ccco3)C(=O)[C@@]12C 89.1 µM [inhibitor, partial curve]
CC[C@]1(C(=O)OC)[C@H]2C(=O)N(C)C(=O)[C@H]2[C@H]2CN=C(SCc3ccc(C#N)cc3)N21 89.1 µM [inhibitor, partial curve]
COc1cccc(-c2nc(CS(=O)(=O)CC(=O)N3CCN(c4cc(C)ccc4C)CC3)c(C)o2)c1 35.5 µM [inhibitor, full curve, poor fit]
CCCn1c(C)cc(C(=O)COC(=O)CN=C2NS(=O)(=O)c3ccccc32)c1C 63.1 µM [inhibitor, single point]
N#Cc1c(/N=C/c2ccc(-c3ccc(C(=O)O)c(Cl)c3)o2)sc2c1CCCC2 39.8 µM [inhibitor, partial curve]
COc1ccc(-c2nc(-c3ccccc3)ncc2S(C)(=O)=O)cc1 39.8 µM [inhibitor, single point]
O=C(O)c1ccc(CSc2nnc(-c3cccnc3)n2-c2ccc(Br)cc2)cc1 17.8 µM [inhibitor, full curve]
CC(=O)Nc1ccc(S(=O)(=O)Nc2ccccc2N2CCOCC2)cc1 50.1 µM [inhibitor, partial curve]
COc1cc2c(cc1OC)C(c1ccc(-c3cc(Cl)ccc3Cl)o1)=NCC2 44.7 µM [inhibitor, partial curve]
CCOc1ccc2c(c1)C(C)=CC(C)(C)N2 44.7 µM [inhibitor, partial curve]
Cc1nn(C(C)C(=O)Nc2ccc3c(c2)OCO3)c(C)c1[N+](=O)[O-] (configuration not stated) 50.1 µM [inhibitor, partial curve]
COc1ccccc1N=NC1C(=O)N(C(N)=S)N=C1C (configuration not stated) 50.1 µM [inhibitor, partial curve]
CC(=O)Nc1sc2c(c1C(c1cccs1)N1CCOCC1)CCCC2 (configuration not stated) 89.1 µM [inhibitor, partial curve]
CS(=O)(=O)c1ccc(Sc2nc3ccccc3s2)c([N+](=O)[O-])c1 31.6 µM [inhibitor, partial curve]
O=C(CC1(O)C(=O)Nc2ccccc21)c1cccc(-n2cccc2)c1 (configuration not stated) 50.1 µM [inhibitor, partial curve]
O=C(NCc1ccco1)C(c1cccs1)N(C(=O)C1COc2ccccc2O1)c1cccc(O)c1 (configuration not stated) 50.1 µM [inhibitor, partial curve]
COc1ccccc1-c1n[nH]c(=S)n1N 39.8 µM [inhibitor, single point]
CN(C)Cc1nc2ccccc2c(=O)n1Cc1nc(-c2cccc([N+](=O)[O-])c2)cs1 20 µM [inhibitor, full curve]
CCNC(=S)NNc1nncc2ccccc12 89.1 µM [inhibitor, partial curve]
O=C(NCc1ccco1)c1ccc(Cl)c(S(=O)(=O)N2CCCC2)c1 79.4 µM [inhibitor, partial curve]
O=C(N/N=C/c1ccc2c(c1)OCO2)c1ccc(Br)o1 89.1 µM [inhibitor, single point]
COC(=O)c1sccc1S(=O)(=O)Nc1ccc(N2CCCCC2)cc1 50.1 µM [inhibitor, partial curve]
CCOc1ccc(N2CC(c3nc4ccccc4n3CCCCOc3ccc(OC)cc3)CC2=O)cc1 (configuration not stated) 11.2 µM [inhibitor, full curve, poor fit]
CCn1c(=O)c2cc(C(=O)NCCCN3CCN(c4ccc(F)cc4)CC3)sc2c2ccccc21 2.82 µM [inhibitor, full curve, poor fit]
Cc1ccc(S(=O)(=O)NCC(=O)NCC(=O)OCC(=O)N2CC(=O)Nc3ccccc32)cc1C 14.1 µM [inhibitor, single point]
CCc1ccc2[nH]c(=O)c(CN(CCN(CC)CC)C(=S)NCc3ccco3)cc2c1 56.2 µM [inhibitor, partial curve]
CCOC(=O)NC(C(F)(F)F)(C(F)(F)F)P(=O)(c1ccccc1)c1ccccc1 28.2 µM [inhibitor, partial curve]
CC[C@H](C)NC(=O)c1ccc(Cn2c(=S)[nH]c3c([nH]c4ccc(OC)cc43)c2=O)cc1 56.2 µM [inhibitor, single point]
C[C@H](CO)N1C[C@H](C)[C@@H](CN(C)C(=O)Nc2ccc(C(F)(F)F)cc2)Oc2ccc(NC(=O)Nc3ccc4c(c3)OCO4)cc2C1=O 25.1 µM [inhibitor, full curve]

Potency, active:
COc1ccccc1CNS(=O)(=O)N(C)C 50.1 µM
O=C(O)C(O)c1ccco1 (configuration not stated) 22.4 µM
O=C(O)CSC1=NC(=Nc2ccc(Cl)cc2)C2(CCCCC2)N1c1cccc(C(=O)O)c1 22.4 µM
NNC(=O)c1ccc2c(c1)S(=O)(=O)NNC2=O 28.2 µM
CCN=c1scc(C)n1/N=C/c1ccc(O)c(O)c1O 44.7 µM
CCOC(=O)C1CCN(Cc2ccc(O)c3ncccc23)CC1 10 µM
C=CCn1c(C(C)NC(=O)c2ccccc2C)n[nH]c1=S (configuration not stated) 7.94 µM
C=CCc1ccc(OCCCNCc2ccccc2)c(OC)c1 28.2 µM
COc1cc(CCc2ccccc2)c(C(=O)O)c(O)c1C/C=C(/C)CCC=C(C)C 79.4 µM
COC(=O)/C=C\C(=O)Nc1cccc([N+](=O)[O-])c1 17.8 µM
N#CCCN1CCN(C(=S)c2ccc(-c3cccc(Cl)c3)o2)CC1 35.5 µM
O=C(CCC(=O)N/N=C/c1cc(Cl)cc(Cl)c1O)NCc1ccccc1 28.2 µM
O=C(O)CSc1cc(C(=O)c2ccccc2O)cn2c(=O)c3c(-c4ccccc4)csc3nc12 56.2 µM

Potency, inactive:
Cc1ccc(S(=O)(=O)n2nc(-c3ccc(Cl)cc3)nc2NCc2ccc(F)cc2)cc1
Cc1nc2ccccn2c1C(=O)NNC(=O)Nc1ccccc1
Cn1c(C(=O)Nc2ccccc2)cc2sccc21
CSc1nnc(C)c(/C=C/Nc2ccc(F)cc2)n1
N#CC1=C(NC=NCc2ccccc2)Oc2ccc3ccccc3c2C1c1ccccc1 (configuration not stated)
CC1CCN(CC(=O)Nc2ccc(S(=O)(=O)N3CCCCC3)cc2)CC1
N#Cc1c(-c2ccccc2)nc(SCC(=O)Nc2ccccc2)[nH]c1=O
Cc1ccc(N2CCN(C(=O)c3cccs3)CC2)c(C)c1
Cc1ccc(N(CC(=O)NC2CCCCC2)C(=O)CNC(=O)c2ccco2)cc1C
CCOC(=O)[C@H](CCc1ccccc1)N[C@@H](C)C(=O)N1[C@H](C(=O)O)C[C@@H]2CCC[C@@H]21
C=C(C)C(=O)Oc1ccc(N2C(=O)[C@@H]3C4C=CC(C4)[C@@H]3C2=O)cc1

Activity change, negative = inhibition, inactive:
CN=c1scc(-c2ccco2)n1/N=C/c1ccc(O)c(O)c1 -27.1% [at 11.4 µM]
